Results as given in PubChem BioAssay (NCATS).
Values joined by “and” are separate entries in the source; they are usually repeats but may differ in a detail not shown here. Equal entries are not always repeated. Inconclusive means that the source gave no clear call. Such entries were picked first, then a sample of the others. A potency beside an inconclusive call is a rough fit, not a confirmed value. More than one record can exist for a structure, and the calls need not agree. Active and inactive are the calls of the source. Calls come from the whole dose curve; as a rule, active = well fitted inhibition curve with a large enough effect; inconclusive = small, poorly fitted or top-dose-only effect; inactive = flat fitted curve, though single readings scatter.

What follows are molecules tested on MKL-1 (assay: qHTS assay to identify novel small-molecules to repurpose for Merkel cell carcinoma treatment (AID 1296009; note: nearly all actives have a fitted effect of over 60% in size)). Details: MCC and control cell lines, CellTiter-Glo viability, 72 h; series mostly up to 46 µM; activity change, negative = cytotoxicity: at the top concentration.
Source text: MCC is a rare and aggressive neuroendocrine skin cancer with limited treatment options. Approximately 80% of MCCs have the Merkel cell polyomavirus (MCPyV) DNA integrated into the host genome (virus-positive: VP-MCC) and viral oncogenes drive oncogenesis. The remaining MCCs are virus-negative (VN-MCC) and are caused by UV mutagenesis. To identify novel treatments for VP-MCC and/or VN-MCC we screened three VP-MCC cell lines (WAGA, MKL-1, MKL-2), three VN-MCC cell lines (MCC-13, MCC-26, UISO), and four immortalized, non-transformed control cell lines (HaCaT, HEK293T, CRL7250, NIH-3T3) against ~2,400 compounds in the NCGC Pharmaceutical Collection (NPC) and ~1,900 compounds in the Mechanism Interrogation PlatE (MiPE). Using cell viability as a readout (CellTiter-Glo assay) we found both overlapping and distinct drugs that can be repurposed for the treatment of VP-MCC and VN-MCC.
A high-throughput screen was conducted in 1536-well white flat bottom plates (Corning) on a Kalypsys robotic system. Cell lines WAGA, MKL-1, MKL-2, MCC-13, MCC-26, UISO, HaCaT, HEK293T, CRL7250, and NIH-3T3 were screened against 2 small molecule annotated drug libraries NPC and MIPE in dose response (8 and 11 pt. respectively) measuring cell viability after 72 hours of incubation. […] A 1,536 pintool (Kalypsys) was used to transfer 23 nL of compound in DMSO to the 1,536-well assay plates. After 72 hr incubation at 37 degree celsius, 2.5 uL of CellTiter-Glo (Promega) was dispensed into each well using a BiorapTR. Plates were incubated at room temperature for 10 min, transferred to a ViewLux (PerkinElmer) and the luminescence was recorded using an exposure time of 2 seconds. Relative luminescence units (RLUs) were normalized to in-plate controls (no cells as a positive (cytotoxicity) control, DMSO as negative control) and the normalized data was processed using NCATS in-house software.
% is set by controls: 0 for no effect and ±100 for the full control effect; potency is the fitted concentration of half-maximal effect; tags give direction and shape of the fitted curve.

| SMILES | Potency | activity change, negative = cytotoxicity |
| --- | --- | --- |
| CC(C)(N)c1ccc(-c2nc3ccccc3nc2-c2ccccc2)cc1 | inconclusive: 37.2 µM [inhibitor, single point] | – |
| COc1ccc2c(c1)CC[C@@H](CN(C)CC(=O)O)[C@H]2c1ccccc1 | inconclusive: 7.43 µM [inhibitor, full curve] | – |
| COc1cc(Nc2c(C#N)cnc3cc(OCCCN4CCN(C)CC4)c(OC)cc23)c(Cl)cc1Cl | active: 8.41 µM | – |
| COc1cc2c(c(OC)c1OC)-c1ccc(OC)c(=O)cc1[C@@H](NC(C)=O)CC2 | inconclusive: 5.3 nM [inhibitor, full curve] and inconclusive: 2.3 nM [inhibitor, full curve] | – |
| Fc1ccc([C@@H]2CCNC[C@H]2COc2ccc3c(c2)OCO3)cc1 | inconclusive: 23.7 µM [inhibitor, single point] | – |
| NC(=O)N1CCC(CC(=O)N2CCC([C@H]3c4ncc(Br)cc4CCc4cc(Cl)cc(Br)c43)CC2)CC1 | inconclusive: 5.26 µM [inhibitor, partial curve] | – |
| CN1c2ccccc2C(=O)N2CCc3c([nH]c4ccccc34)C21 (stereo not given) | – | inactive: 0.367% |
| COc1c(C)cnc(Cn2cnc3c(Cl)nc(N)nc32)c1C | inconclusive: 0.418 µM [inhibitor, full curve] | – |
| CC1=C(C(=O)Nc2cc3cn[nH]c3cc2F)C(c2ccc(Cl)cc2F)N=C(c2ccnc(Cl)c2)N1 (stereo not given) | inconclusive: 9.35 µM [inhibitor, full curve] | – |
| NCCCCNCCCN | inconclusive: 26.4 µM [inhibitor, single point] | – |
| O=S(=O)(NCCNCC=Cc1ccc(Br)cc1)c1cccc2cnccc12 | active: 20.9 µM | – |
| Cc1cc(Nc2nc(N[C@@H](C)c3ccc(F)cc3)c(C#N)cc2F)n[nH]1 | inconclusive: 2.09 µM [inhibitor, full curve] | – |
| CNc1nccc(-c2cccnc2Oc2cc(C(=O)Nc3cccc(C(F)(F)F)c3)ccc2C)n1 | – | inactive: 0.684% |
| C=C[C@@H]1CN2CCC1C[C@H]2[C@H](O)c1ccnc2ccc(OC)cc12 (stereo not given in full) | – | inactive: -7.76% |
| COc1cc2c(Nc3ccc(NC(=O)c4ccccc4)cc3)ncnc2cc1OCCCN1CCOCC1 | inconclusive: 2.64 µM [inhibitor, full curve] | – |
| NC(=O)C1CCCc2c1[nH]c1ccc(Cl)cc21 (stereo not given) | – | inactive: -13.8% |
| O=C1CSC(=O)N1C(CCc1ccncc1)COc1ccc(-c2cccc([N+](=O)[O-])c2)cc1 (stereo not given) | inconclusive: 20.9 µM [inhibitor, partial curve] | – |
| COCCOc1ccc2c(c1)ncn2-c1ccc2cccc(N3CCC(N)CC3)c2n1 | active: 20.9 µM | – |
| Nc1nc(Cl)nc2c1ncn2[C@@H]1O[C@H](CO)[C@@H](O)[C@H]1F | active: 0.0132 µM | – |
| COc1ccc(CCN(C)CCCOc2ccc(S(=O)(=O)c3[nH]c4ccccc4c3C(C)C)cc2)cc1OC | inconclusive: 23.5 µM [inhibitor, partial curve, poor fit] | – |

| SMILES | Potency | activity change, negative = cytotoxicity |
| --- | --- | --- |
| COc1ccc2ccc(=O)oc2c1CC=C(C)C | active: 10.5 µM | – |
| CC1(C)CC(=O)c2c(C(F)(F)F)nn(-c3ccc(C(N)=O)c(NC4CCC(OC(=O)CN)CC4)c3)c2C1 (stereo not given) | inconclusive: 0.418 µM [inhibitor, full curve] | – |
| CCOc1cc2ncc(C#N)c(Nc3ccc(F)c(Cl)c3)c2cc1NC(=O)C=CCN(C)C | active: 14.8 µM | – |
| FC(F)c1nc2ccccc2n1-c1nc(N2CCOCC2)nc(N2CCOCC2)n1 | inconclusive: 1.18 µM [inhibitor, full curve] | – |
| Oc1ccc([C@@H]2Oc3ccc(O)cc3[C@@H]3CCC[C@@H]32)cc1 | inconclusive: 29.6 µM [inhibitor, partial curve] | – |
| CN(C)CC(=O)N1CCC(c2ccc(NC(=O)c3ncc(C#N)[nH]3)c(C3=CCCCC3)c2)CC1 | inconclusive: 23.5 µM [inhibitor, single point] | – |
| O=C1[C@H](Cc2ccc(O)cc2)N2C(=O)CCN(C(=O)NCc3ccccc3)[C@H]2CN1Cc1cccc2ccccc12 | active: 14.8 µM | – |
| NC(=NCc1ccccc1)NC(=O)c1nc(Cl)c(N)nc1N | – | inactive: -0.209% |
| COC(=O)Nc1nc2ccc(C(=O)c3ccccc3)cc2[nH]1 | inconclusive: 106 nM [inhibitor, full curve] and inconclusive: 2.96 µM [inhibitor, full curve] | – |
| COc1cc2nccc(Oc3ccc(NC(=O)Nc4cc(C)on4)c(Cl)c3)c2cc1OC | inconclusive: 26.4 µM [inhibitor, partial curve, poor fit] | – |
| CC(C)OC(=O)[C@H](C)N[P@](=O)(OC[C@H]1O[C@@H](n2ccc(=O)[nH]c2=O)[C@](C)(F)[C@H]1O)Oc1ccccc1 | – | inactive: -7.43% |
| CCOC(=O)C1=C(C)NC(=S)NC1c1cccc(O)c1 (stereo not given) | inconclusive: 0.0418 µM [inhibitor, full curve] | – |
| Cc1cnc(Nc2ccc(N3CCN(C)CC3)cc2)nc1Nc1cccc(S(=O)(=O)NC(C)(C)C)c1 | active: 10.5 µM | – |
| Nc1c2c(nc3ccccc13)CCCC2 | inactive | – |
| CCC(=O)N1CCN(c2ccc(-n3c(=O)ccc4cnc5ccc(-c6cnc7ccccc7c6)cc5c43)cc2C(F)(F)F)CC1 | inconclusive: 0.166 µM [inhibitor, full curve] | – |
| CN(C)CCN1C(=O)c2cccc3cc(N)cc(c23)C1=O | active: 14.8 µM | – |
| Cc1[nH]nc2ccc(-c3cncc(OC[C@@H](N)Cc4ccccc4)c3)cc12 | active: 1.87 µM | – |
| CNC(=O)c1ccc2c(C(=Nc3cccc(CN(C)C)c3)c3ccccc3)c(O)[nH]c2c1 | – | inactive: 1.83% |
| CO[C@@H]1C(N(C)C(=O)c2ccccc2)C[C@H]2O[C@]1(C)n1c3ccccc3c3c4c(c5c6ccccc6n2c5c31)C(=O)NC4=O (stereo not given in full) | inconclusive: 8.33 µM [inhibitor, full curve] | – |
| COc1ccc2c(c1OC)C(=O)OC2[C@H]1c2c(cc3c(c2OC)OCO3)CCN1C (stereo not given in full) | inconclusive: 0.132 µM [inhibitor, full curve] | – |
